In PubChem BioAssay AID686978 (National Center for Advancing Translational Sciences (NCATS), 2013):
Where “and” joins values, the source holds several entries; their conditions need not be identical. Equal entries are not always repeated. Among all 420,000 compounds or so, about 64,000 (15%) were called active. The inconclusive results got no clear call from the source; some entries with a clear call stand among them for comparison. Calls follow the shape of the dose curve; as a rule, active = well fitted inhibition curve with a large enough effect; inconclusive = small, poorly fitted or top-dose-only effect; inactive = flat fitted curve, though single readings scatter. No potency is given beside an inconclusive call; the fits are too rough.

Experiment: qHTS for Inhibitors of human tyrosyl-DNA phosphodiesterase 1 (TDP1): qHTS in cells in absence of CPT; also: nearly all actives have a fitted effect of over 55% in size
Settings: DT40 Tdp1-/- hTDP1 cells, no CPT, ATP luminescence, 48 h; activity change, negative = growth inhibition: at 46.2 µM (top of the series)
In short: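 Growth kinetics read by CellTiter-Glo luminescence after ≥48 hr at 37 °C. Cells: DT40 Tdp1-/- stably carrying human TDP1, 400 per well, compound exposure in the absence of CPT (DMSO vehicle).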
% is scaled to controls: 0 for no effect and ±100 for the full control effect; potency is read from the fitted curve at half-maximal effect; tags tell the direction and shape of the fitted curve.

SMILES	Potency	activity change, negative = growth inhibition
O=C(Cc1ccc(NC(=O)N2CCSc3ncccc32)cc1)NCc1cccc(Cl)c1	active: 20.6 µM	
O=C(c1ccccc1F)N1C(=O)c2cccc3cccc1c23	inconclusive [inhibitor, partial curve]	
CN1CCN(c2ccc(Cl)cc2NC(=O)CN2C(=O)NC(C)(c3ccccc3)C2=O)CC1 (stereo not given)	inconclusive [inhibitor, single point]	
CC(=O)N1c2ccc(S(=O)(=O)N3CCCC(C(=O)NCc4ccc(Cl)cc4)C3)cc2CC1C (stereo not given)	inconclusive [inhibitor, single point]	
COc1ccc(OC)c(NC(=O)NNC(=O)CCCOc2ccc(Cl)cc2C)c1	inconclusive [inhibitor, single point]	
CN(C)C1(CNC(=O)C2CCN(S(=O)(=O)c3cccc(C(F)(F)F)c3)CC2)CCCCC1	inactive	
CCN1CCN(C(=S)c2ccc([N+](=O)[O-])cc2)CC1		inconclusive: -33.6% [inhibitor]
COc1cccc(OCc2nnc(SCC(=O)NCc3ccco3)n2CCc2ccccc2)c1	active: 23.1 µM	
NC(CCc1ccccc1)c1csc(Nc2ccc(C(=O)NCCCO)cn2)n1 (stereo not given)	inactive	
CC(=O)Nc1ccc(SCC(=O)c2cc(C)n(-c3ccccc3)c2C)cc1	inactive	
Cc1ccc(NC(=O)C2CCCN2S(=O)(=O)c2cccc3cccnc23)c(C)c1 (stereo not given)	active: 18.4 µM and active: 16.4 µM	
CN(C)C(=C(C#N)C#N)N1CCN(c2ccc(Cl)c(Cl)c2)CC1	inconclusive [inhibitor, single point]	
NS(=O)(=O)c1ccc(CCNC(=O)c2cc(-c3ccco3)nc3ccccc23)cc1		inconclusive: -31.9% [inhibitor]
Nc1ccc(-c2cnc(N)c(C(=O)c3cccnc3)n2)cn1	active: 3.66 µM	
COc1ccccc1Nc1ccc(NC(=O)c2cccc([N+](=O)[O-])c2C)cc1	active: 18.4 µM	
O=C(NCCN1C(=O)S/C(=C\c2cccnc2)C1=O)c1ccc(S(=O)(=O)N2CCCC2)cc1	inconclusive [inhibitor, partial curve]	
Cc1cnc(C(=O)Oc2c(C)ccc(C)c2C)cn1	inactive	
Cc1nn(-c2ccccn2)c2nc(-c3cccs3)cc(C(=O)NCc3ccco3)c12	active: 23.1 µM	
CCCOc1ccc(C2C(=O)N(C3CCCCCC3)CC(=O)N2Cc2ccco2)cc1OC (stereo not given)	inconclusive [inhibitor, full curve, poor fit]	
Cc1ccc2c(=O)c(C(=O)c3ccc(Cl)cc3)cn(CC(=O)Nc3ccc4c(c3)OCCO4)c2n1	inconclusive [inhibitor, single point]	
CC(=O)Nc1ccc(S(=O)(=O)NC(C)C(=O)OCCOc2ccc(F)cc2)cc1 (stereo not given)	inactive	
O=C(NCCN1CCOCC1)C1CC(=O)N(c2ccc(F)c(Cl)c2)C1 (stereo not given)	inactive	
FC(F)(F)c1ccccc1-c1nc(NCCN2CCOCC2)c2ccccc2n1	inactive	

SMILES	Potency	activity change, negative = growth inhibition
COc1cccc(NC(=O)Nc2cccn(Cc3ccccc3)c2=O)c1	inconclusive [inhibitor, single point]	
CCOc1ccccc1CNC(=O)c1oc2c(c1C)-c1nn(Cc3cccc(Cl)c3)cc1CC2	active: 20.6 µM	
COc1ccc(-n2cc(-c3ccccc3)c3c(N4CC(C)OC(C)C4)ncnc32)cc1 (stereo not given)	active: 11.6 µM	
COc1ccc(C(=O)N(Cc2ccccc2)c2cccc(C)c2)c(OC)c1OC	inconclusive [inhibitor, single point]	
CC12COC3(C(=O)Nc4ccc5ccccc5c4)CC1CCC32C (stereo not given)	inconclusive [inhibitor, single point]	
Cc1cccc(C(=O)NCc2nc3ccccc3n2Cc2ccccc2Cl)c1	inconclusive [inhibitor, single point]	
NNC(=O)CCN(Cc1ccco1)S(=O)(=O)c1ccc(Cl)cc1	inactive	
CCOc1ccc(Cn2c(CNS(=O)(=O)c3ccc(C(C)(C)C)cc3)nc3cccnc32)cc1	inconclusive [inhibitor, single point]	
COc1ccc2cc(C3=CCCC3(C)C(=O)O)ccc2c1 (stereo not given)		inconclusive: -35.4% [inhibitor]
Cc1c(CCCN)c2ccccc2n1Cc1ccccc1	active: 16.4 µM	
CCCOC1(NC(=O)c2ccccc2)C(C)=CC(=O)C=C1C	inconclusive [inhibitor, single point]	
O=S(=O)(Nc1ncccn1)c1ccc(NC(=S)Nc2ccccc2)cc1	inconclusive [inhibitor, full curve, poor fit]	
Cn1c2ccccc2c(=O)c2cc(C#CC3(O)CCCCC3)ccc21	inconclusive [inhibitor, single point]	
COc1ccc(NC(=O)COc2ccc(-n3cnnn3)cc2)cc1OC	active: 23.1 µM	
CC(C)OC(=O)c1cc(NC(=O)c2nn(C)cc2Br)cc(C(=O)OC(C)C)c1	inconclusive [inhibitor, single point]	
COc1ccc2c(c1)c(=O)oc1cc(OCC(=O)N3CCc4ccccc4C3)ccc12	inconclusive [inhibitor, single point]	
COC(=O)N/N=C/c1cn(CCCOc2ccccc2)c2ccccc12	inconclusive [inhibitor, single point]	
CC(=O)N(C)c1nnc(-c2ccccn2)s1	inconclusive [inhibitor, partial curve, poor fit]	
CCOc1ccc(NC(=O)CN(C)Cc2ccc3c(c2)OCO3)cc1S(=O)(=O)N1CCCC1	inconclusive [inhibitor, single point]	
CCOc1ccc(CNC(=O)C2=Cc3cccc(OC)c3OC2)cc1	inconclusive [inhibitor, single point]	
Cn1c(/C(C#N)=C/c2cccc(O)c2)nc2ccccc21	inconclusive [inhibitor, single point]	
O=C(NCc1nc2ccccc2[nH]1)C1=C[C@@H](c2ccccc2)C[C@@H](OCCCCO)O1	inconclusive [inhibitor, single point]	
